Data published in the supplement of paper PMC12645437, “Orthogonal IMiD-Degron Pairs Induce Selective Protein Degradation in Cells” (ACS Chemical Biology, 2025).
Some of the results follow.

Target: no compound (DMSO)
Test: log2 fold change of degron read counts, EGFP-low vs EGFP+ sorted cells; higher = lower degron-EGFP level without compound (poor expression or instability)
Conditions: compound: DMSO control; 18 h
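Note: jurkat cells carrying a lentiviral library of mutant zinc finger degrons fused to EGFP plus mCherry, mCherry+ cells FACS sorted, degron abundance counted by next-generation sequencing.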

**Q.** For FFCNQCGHFFTQKGNLLRHIKL, which “log2 fold change of degron read counts” value is on record?
**A.** 1.2

**Q.** With FMCPICGHDFTQKGNLLRHIKL as the sequence, how does the “log2 fold change of degron read counts” value read?
**A.** -0.0662

**Q.** FMCNQCGRIFTQKGNLLRHIKL was tested. Which “log2 fold change of degron read counts” value did it give?
**A.** 0.817

**Q.** FWCEQCGAPFTQKGNLLRHIKL was tested. Which “log2 fold change of degron read counts” value did it give?
**A.** 0.291

**Q.** LQCPICGFHCTQKGNLLRHIKL was tested. Which “log2 fold change of degron read counts” value did it give?
**A.** 0.741

**Q.** For FLCSVCGHAFTQKGNLLRHIKL, which “log2 fold change of degron read counts” value is on record?
**A.** -0.625

**Q.** FFCEICGRDFTQKGNLLRHIKL was tested. Which “log2 fold change of degron read counts” value did it give?
**A.** -2.4

**Q.** With FNCNQCGHEFTQKGNLLRHIKL as the sequence, how does the “log2 fold change of degron read counts” value read?
**A.** -0.248

**Q.** FNCPICGAYFTQKGNLLRHIKL was tested. Which “log2 fold change of degron read counts” value did it give?
**A.** 0.819

**Q.** Which “log2 fold change of degron read counts” value does the source give for FACNVCGACFTQKGNLLRHIKL here?
**A.** -0.628

**Q.** LWCPICGFHCTQKGNLLRHIKL was tested. Which “log2 fold change of degron read counts” value did it give?
**A.** 2.31

**Q.** FKCPQCGAAFTQKGNLLRHIKL was tested. Which “log2 fold change of degron read counts” value did it give?
**A.** -0.983

**Q.** FQCDVCGADFTQKGNLLRHIKL was tested. Which “log2 fold change of degron read counts” value did it give?
**A.** -1.89

**Q.** FRCSVCGHKFTQKGNLLRHIKL was tested. Which “log2 fold change of degron read counts” value did it give?
**A.** -0.721

**Q.** How did the “log2 fold change of degron read counts” value turn out when FDCPICGAVFTQKGNLLRHIKL was run?
**A.** 0.00925

**Q.** Which “log2 fold change of degron read counts” value does the source give for FHCPICGHVFTQKGNLLRHIKL here?
**A.** -0.422

**Q.** For FRCPICGHRFTQKGNLLRHIKL, which “log2 fold change of degron read counts” value is on record?
**A.** -0.379

**Q.** Which “log2 fold change of degron read counts” value does the source give for LRCPICGFECTQKGNLLRHIKL here?
**A.** -0.173

**Q.** How did the “log2 fold change of degron read counts” value turn out when FGCDICGAMFTQKGNLLRHIKL was run?
**A.** -0.933

**Q.** Which “log2 fold change of degron read counts” value does the source give for FNCEQCGANFTQKGNLLRHIKL here?
**A.** -2.37

**Q.** With FMCPICGHKFTQKGNLLRHIKL as the sequence, how does the “log2 fold change of degron read counts” value read?
**A.** 0.415

**Q.** Which “log2 fold change of degron read counts” value does the source give for FTCDVCGAMFTQKGNLLRHIKL here?
**A.** -1.48

**Q.** For FFCDQCGAKFTQKGNLLRHIKL, which “log2 fold change of degron read counts” value is on record?
**A.** -1.77

**Q.** How did the “log2 fold change of degron read counts” value turn out when FNCPICGAMFTQKGNLLRHIKL was run?
**A.** -0.0463

**Q.** How did the “log2 fold change of degron read counts” value turn out when FNCSVCGHMFTQKGNLLRHIKL was run?
**A.** -0.606

**Q.** For FTCNQCGAAFTQKGNLLRHIKL, which “log2 fold change of degron read counts” value is on record?
**A.** -1.14

**Q.** Which “log2 fold change of degron read counts” value does the source give for FACEQCGAPFTQKGNLLRHIKL here?
**A.** -2.51

**Q.** How did the “log2 fold change of degron read counts” value turn out when FQCEICGHTFTQKGNLLRHIKL was run?
**A.** -3.15

**Q.** Which “log2 fold change of degron read counts” value does the source give for FGCNVCGAFFTQKGNLLRHIKL here?
**A.** 0.665

**Q.** How did the “log2 fold change of degron read counts” value turn out when FGCEICGRIFTQKGNLLRHIKL was run?
**A.** -0.075

**Q.** FCCDQCGAWFTQKGNLLRHIKL was tested. Which “log2 fold change of degron read counts” value did it give?
**A.** -0.788

**Q.** With FACEICGADFTQKGNLLRHIKL as the sequence, how does the “log2 fold change of degron read counts” value read?
**A.** -1.95

**Q.** For FECEVCGAPFTQKGNLLRHIKL, which “log2 fold change of degron read counts” value is on record?
**A.** -1.42

**Q.** With FFCDVCGANFTQKGNLLRHIKL as the sequence, how does the “log2 fold change of degron read counts” value read?
**A.** -0.69

**Q.** LTCPICGFGCTQKGNLLRHIKL was tested. Which “log2 fold change of degron read counts” value did it give?
**A.** 0.631

**Q.** How did the “log2 fold change of degron read counts” value turn out when FYCPICGHKFTQKGNLLRHIKL was run?
**A.** -1.12

**Q.** With LTCNQCGFYCTQKGNLLRHIKL as the sequence, how does the “log2 fold change of degron read counts” value read?
**A.** 1.44

**Q.** For FTCDVCGAKFTQKGNLLRHIKL, which “log2 fold change of degron read counts” value is on record?
**A.** -1.46

**Q.** Which “log2 fold change of degron read counts” value does the source give for FHCPICGHNFTQKGNLLRHIKL here?
**A.** -0.275

**Q.** FRCDICGAGFTQKGNLLRHIKL was tested. Which “log2 fold change of degron read counts” value did it give?
**A.** -1.34

**Q.** How did the “log2 fold change of degron read counts” value turn out when FLCDICGAFFTQKGNLLRHIKL was run?
**A.** -0.573

**Q.** How did the “log2 fold change of degron read counts” value turn out when FACNQCGAEFTQKGNLLRHIKL was run?
**A.** -1.03

**Q.** LHCEICGFACTQKGNLLRHIKL was tested. Which “log2 fold change of degron read counts” value did it give?
**A.** -0.201

**Q.** With FNCNQCGRKFTQKGNLLRHIKL as the sequence, how does the “log2 fold change of degron read counts” value read?
**A.** -0.0217

**Q.** How did the “log2 fold change of degron read counts” value turn out when FMCPQCGADFTQKGNLLRHIKL was run?
**A.** -2.06

**Q.** Which “log2 fold change of degron read counts” value does the source give for FSCEICGHNFTQKGNLLRHIKL here?
**A.** -2.82

**Q.** How did the “log2 fold change of degron read counts” value turn out when FTCNQCGARFTQKGNLLRHIKL was run?
**A.** -0.785

**Q.** For FTCEICGRCFTQKGNLLRHIKL, which “log2 fold change of degron read counts” value is on record?
**A.** -1.18

**Q.** How did the “log2 fold change of degron read counts” value turn out when LRCEICGFCCTQKGNLLRHIKL was run?
**A.** 0.0023

**Q.** With LTCEICGFFCTQKGNLLRHIKL as the sequence, how does the “log2 fold change of degron read counts” value read?
**A.** 1.37
